Experimental data taken from the supplement of paper PMC6531468.
The other results are listed elsewhere or left out. Values come from read counts of a selection and are noisy. Scores sum up all selected molecules that hold the word; the word was not tested alone.

tested on: IMP3 RRM1-2; experiment: 6-mer SELEX enrichment z-score vs GST control; IMP3 is the RNA-binding protein IGF2BP3; higher = more enriched by binding; settings: construct: RRM1-2 (1-163); SELEX round: R2
Method: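 SELEX-seq with GST-tagged IMP3 RRM1-2 (Met1-Asn163) and an N40 RNA pool, round 2. 6-mer enrichment z-score normalised to GST SELEX. RNA written as DNA (T = U).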

Chain of IMP3 RRM1-2 (chain, as listed by the source): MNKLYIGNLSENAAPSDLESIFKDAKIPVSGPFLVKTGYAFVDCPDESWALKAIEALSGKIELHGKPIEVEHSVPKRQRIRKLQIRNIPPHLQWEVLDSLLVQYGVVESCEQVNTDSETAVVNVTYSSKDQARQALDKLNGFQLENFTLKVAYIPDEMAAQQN

| Sequence | 6-mer SELEX enrichment z-score |
| --- | --- |
| CATGCC | 0.23 |
| TTTCAT | 1.12 |
| GGAGAT | -0.3 |
| TTGTTT | 0.42 |
| CTTAGA | -0.269 |
| CGGCGC | 0.379 |
| TGAAGC | -0.578 |
| CGCGTA | -0.172 |
| GGCGAA | -0.287 |
| GGAGAG | -0.574 |
| AGCACA | 2.04 |
| ATAAGG | -0.135 |
| GGAGAC | -0.819 |
| ACCGCT | -0.381 |
| CTCGGC | 0.394 |
| CTAATC | 0.315 |
| TGAGAC | -0.774 |
| TCCAGA | -0.309 |
| TCCGCG | -0.011 |
| GTCTTT | 0.497 |

| Sequence | 6-mer SELEX enrichment z-score |
| --- | --- |
| CTCCGT | 0.035 |
| CATATT | 0.834 |
| GTACCG | -0.3 |
| TCGGCC | 0.305 |
| CAGTCA | 0.984 |
| CTGCCA | -0.153 |
| GCCATA | 0.069 |
| CCACGG | -0.249 |
| TCACAG | 1.56 |
| AAACGT | -1.34 |
| GAGGGA | -0.53 |
| ATCAGT | 1.15 |
| ATGCTT | 0.137 |
| CATAAA | 0.435 |
| GCAAGT | 0.124 |
| GATTAG | -0.219 |
| GCTTTA | 0.14 |
| CAAAAA | -1.98 |
| TGCGCT | 0.222 |
| TAACGA | -1.25 |
